Measurements published in the supplement of paper PMC8728848.
The other results are listed elsewhere or left out.

Experiments:
Experiment in all cases: glycan array binding signal (z-score within array); higher = stronger binding
Settings in all cases: glycan notation: IUPAC condensed, linker removed
[1] = target: Gal(b1-4)GlcNAc(b1-2)Man(a1-6)[Man(a1-3)]Man(b1-4)GlcNAc(b1-4)GlcNAc
Outline: (§1)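 Columns mapping to the same glycan were averaged after glycan names were converted to IUPAC-condensed notation. The data come from 3228 arrays in the Consortium for Functional Glycomics database, limited to those with an available protein sequence. Binding is reported as a within-array Z-score averaged across arrays of one protein sequence and across linkers.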

[2] = target: Gal(b1-4)GlcNAc(b1-2)[Gal(b1-4)GlcNAc(b1-4)]Man(a1-3)[Gal(b1-4)GlcNAc(b1-2)Man(a1-6)]Man(b1-4)GlcNAc(b1-4)GlcNAc
Outline: as §1

[3] = target: Gal(b1-4)GlcNAc(b1-2)[Gal(b1-4)GlcNAc(b1-4)]Man(a1-3)[Gal(b1-4)GlcNAc(b1-2)[Gal(b1-4)GlcNAc(b1-6)]Man(a1-6)]Man(b1-4)GlcNAc(b1-4)GlcNAc
Outline: as §1

[4] = target: Gal(b1-4)GlcNAc(b1-2)[Gal(b1-4)GlcNAc(b1-4)]Man(a1-3)[GlcNAc(b1-4)][Gal(b1-4)GlcNAc(b1-2)Man(a1-6)]Man(b1-4)GlcNAc(b1-4)GlcNAc
Outline: as §1

[5] = target: Gal(b1-4)GlcNAc(b1-2)[Gal(b1-4)GlcNAc(b1-4)]Man(a1-3)[GlcNAc(b1-4)][Gal(b1-4)GlcNAc(b1-2)[Gal(b1-4)GlcNAc(b1-6)]Man(a1-6)]Man(b1-4)GlcNAc(b1-4)GlcNAc
Outline: as §1

[6] = target: Gal(b1-4)GlcNAc(b1-2)[Gal(b1-4)GlcNAc(b1-6)]Man(a1-6)[Gal(b1-4)GlcNAc(b1-2)Man(a1-3)]Man(b1-4)GlcNAc(b1-4)GlcNAc
Outline: as §1

[7] = target: Gal(b1-4)GlcNAc(b1-2)[Gal(b1-4)GlcNAc(b1-6)]Man(a1-6)[Gal(b1-4)GlcNAc(b1-2)Man(a1-3)]Man(b1-4)GlcNAc(b1-4)[Fuc(a1-6)]GlcNAc
Outline: as §1

[8] = target: Gal(b1-4)GlcNAc(b1-2)[Gal(b1-4)GlcNAc(b1-6)]Man(a1-6)[GlcNAc(b1-4)][Gal(b1-4)GlcNAc(b1-2)Man(a1-3)]Man(b1-4)GlcNAc(b1-4)GlcNAc
Outline: as §1

[9] = target: Gal(b1-4)GlcNAc(b1-2)[Gal(b1-4)GlcNAc(b1-6)]Man(a1-6)[GlcNAc(b1-4)][Gal(b1-4)GlcNAc(b1-2)[Gal(b1-4)GlcNAc(b1-4)]Man(a1-3)]Man(b1-4)GlcNAc(b1-4)[Fuc(a1-6)]GlcNAc
Outline: as §1

[10] = target: Gal(b1-4)GlcNAc(b1-3)Gal(b1-3)GalNAc
Outline: as §1

[11] = target: Gal(b1-4)GlcNAc(b1-3)Gal(b1-3)GlcNAc
Outline: as §1

[12] = target: Gal(b1-4)GlcNAc(b1-3)Gal(b1-4)Glc
Outline: as §1

[13] = target: Gal(b1-4)GlcNAc(b1-3)Gal(b1-4)GlcNAc
Outline: as §1

[14] = target: Gal(b1-4)GlcNAc(b1-3)Gal(b1-4)GlcNAc(b1-2)Man(a1-3)[Gal(b1-4)GlcNAc(b1-3)Gal(b1-4)GlcNAc(b1-2)Man(a1-6)]Man(b1-4)GlcNAc(b1-4)GlcNAc
Outline: as §1

[15] = target: Gal(b1-4)GlcNAc(b1-3)Gal(b1-4)GlcNAc(b1-2)Man(a1-3)[Gal(b1-4)GlcNAc(b1-3)Gal(b1-4)GlcNAc(b1-2)Man(a1-6)]Man(b1-4)GlcNAc(b1-4)[Fuc(a1-6)]GlcNAc
Outline: as §1

[16] = target: Gal(b1-4)GlcNAc(b1-3)Gal(b1-4)GlcNAc(b1-2)[Gal(b1-4)GlcNAc(b1-3)Gal(b1-4)GlcNAc(b1-6)]Man(a1-6)[Gal(b1-4)GlcNAc(b1-3)Gal(b1-4)GlcNAc(b1-2)Man(a1-3)]Man(b1-4)GlcNAc(b1-4)GlcNAc
Outline: as §1

[17] = target: Gal(b1-4)GlcNAc(b1-3)Gal(b1-4)GlcNAc(b1-2)[Gal(b1-4)GlcNAc(b1-3)Gal(b1-4)GlcNAc(b1-6)]Man(a1-6)[Gal(b1-4)GlcNAc(b1-3)Gal(b1-4)GlcNAc(b1-2)Man(a1-3)]Man(b1-4)GlcNAc(b1-4)[Fuc(a1-6)]GlcNAc
Outline: as §1

[18] = target: Gal(b1-4)GlcNAc(b1-3)Gal(b1-4)GlcNAc(b1-3)Gal(b1-4)GlcNAc
Outline: as §1

B1: PX9937J-pdi-523-26-523 (Parabacteroides distasonis) (protein)
chain: EPVSSISDANYWKSPDLFKAFNIGLHGLLRSQSSYNIFVLGEPRSDIYGDQPFGGEATQGVERFSYNTINAEFTGISNFANFYTTLNQINLMIRRTNETDLLGEAEKNYYLGQAYGLRAYIYFHLLRSWGDVIITTEPTLGSELDISHLDKAASPASEVMDLIKKDIDASEKAFGGDYSYKQGKCYWSKPATLMLKGEVYLWSGRQMGGGTGDYTVAKTALQDLQQNGNLKLQEKFTDVFSFNNKENSEMIFALHSGKEDDFMMWRDYNWRNNMVPQREYMAGYCDETGTPFLEIPGYNLQGLMRYQVKKDHYLKSFREGDTRLKGTLKAVYKKHEDGTLEYIAPIQYKFQGTTLEGSNERSWYDDYPIYRYADALLLLAEAKALLGEDPSTEINAVRERAYGSEYFNAHKNEVAYPNDKGSFYNDNPFEAGDENVMEAILKERLREFFFEGKRWYDLRRFGKDYVLKYTTAQESRLLWPINEGALTNNPALKQTPGY
In the case of B1, the “glycan array binding signal (z-score)” value [1] is reported as -0.396, the “glycan array binding signal (z-score)” value [2] is reported as -0.494 and the “glycan array binding signal (z-score)” value [3] is reported as 0.029. For the same binder, the “glycan array binding signal (z-score)” value [4] was -0.87, the “glycan array binding signal (z-score)” value [5] was -0.194 and the “glycan array binding signal (z-score)” value [6] was 0.284. For the same binder, the “glycan array binding signal (z-score)” value [7] was 1.86, the “glycan array binding signal (z-score)” value [8] was 0.532 and the “glycan array binding signal (z-score)” value [9] was 0.353. The “glycan array binding signal (z-score)” value [10] was -0.055, the “glycan array binding signal (z-score)” value [11] was 0.59 and the “glycan array binding signal (z-score)” value [12] was 0.002. The “glycan array binding signal (z-score)” value [13] was -0.225, the “glycan array binding signal (z-score)” value [14] was 1.25 and the “glycan array binding signal (z-score)” value [15] was -0.245. For the same binder, the “glycan array binding signal (z-score)” value [16] was 10.4, the “glycan array binding signal (z-score)” value [17] was 0.551 and the “glycan array binding signal (z-score)” value [18] was -0.378.
